The supplement of paper PMC8183993
Counter-ions that a name gives are not always drawn. ± gives the standard deviation of the averaged measurements. Whole data set: some 3,200 compounds, median “nuclei count (viability) relative to DMSO” near 99, cut for the lowest 2% near 16. Some of the results follow.

system: U2OS; experiment: nuclei count (viability) relative to DMSO (% of DMSO); higher = more viable cells; details: 10 µM; 24 h
Method: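 Primary image-based screen in U2OS cells: compounds at 10 uM for 24 h, then a 1 h o-propargyl-puromycin (OPP) pulse, click labelling, and high-throughput microscopy. Mean cytoplasmic OPP intensity and nuclei count were normalised to DMSO wells within each plate (DMSO = 100) and averaged over triplicate plates.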

Row | Compound | nuclei count
1 | CCn1ccnc1CC1COc2ccccc2O1 (configuration not stated) [Imiloxan hydrochloride] | 103
2 | CNC(C)C1CCC(N)C(OC2C(N)CC(N)C(OC3OCC(C)(O)C(NC)C3O)C2O)O1 (configuration not stated) [Gentamycin sulfate (Gentacycol)] | 79.5
3 | Cc1c(F)cc(C(=O)NC2CC2)cc1-c1ccc(C(=O)NCC(C)(C)C)cn1 [Losmapimod] | 91.4
4 | COc1ccc(S(=O)(=O)N(C(C)=O)c2ccccc2/C=C/c2cc[n+]([O-])cc2)cc1 | 22.85 ± 0.22
5 | CC[C@H]1OC(=O)[C@H](C)[C@@H](O[C@H]2C[C@@](C)(OC)[C@@H](O)[C@H](C)O2)[C@H](C)[C@@H](O[C@@H]2O[C@H](C)C[C@H](N(C)C)[C@H]2O)[C@](C)(O)C[C@@H](C)[C@@H]2N[C@@H](COCCOC)O[C@H]([C@H]2C)[C@]1(C)O [Dirithromycin] | 102
6 | O=C1CC2(CCCC2)CC(=O)N1CCCCN1CCN(c2ncccn2)CC1 [Buspirone hydrochloride] | 101 ± 6.5
7 | CC(C)c1cc(-c2ccc(F)c3ccccc23)nc(N)n1 | 101
8 | O=C(NOC[C@H](O)CO)c1ccc(F)c(F)c1Nc1ccc(I)cc1F | 95.8
9 | Cc1cc(C)c(/C=C2\C(=O)Nc3ccccc32)[nH]1 [Semaxanib (SU5416)] | 100
10 | Cc1cc(C)c(/C=C2\C(=O)Nc3ccccc32)[nH]1 | 107
11 | O=c1cc[nH]c(=S)[nH]1 [2-Thiouracil] | 102
12 | CC(C)CC(=O)N[C@H](C(=O)N[C@H](C(=O)N[C@@H](CC(C)C)[C@@H](O)CC(=O)N[C@@H](C)C(=O)N[C@@H](CC(C)C)[C@@H](O)CC(=O)O)C(C)C)C(C)C [Pepstatin A] | 101 ± 4.6
13 | N[C@H](C(=O)O)c1cc(O)cc(O)c1 | 99.8
14 | Cc1cccc(C#Cc2ccccc2)n1 [MPEP hydrochloride] | 105
15 | c1ccc(C(NCc2cccnc2)(c2ccccc2)c2ccccc2)cc1 | 91.5
16 | C[C@H](O)C(=O)Nc1c(I)c(C(=O)NC(CO)CO)c(I)c(C(=O)NC(CO)CO)c1I [Iopamidol] | 91.4
17 | COC(=O)C1=C(C)NC(C)=C(C(=O)OCCSc2ccccc2)C1C (configuration not stated) | 97.8
18 | Nc1nc(NCCc2ccc(O)cc2)nc2nc(-c3ccco3)nn12 | 114
19 | O=C(/C=C/c1ccc(CN(CCO)CCc2c[nH]c3ccccc23)cc1)NO [LAQ824 (NVP-LAQ824, Dacinostat)] | 26.9
20 | CN1CCN(CCOc2cc(OC3CCOCC3)c3c(Nc4c(Cl)ccc5c4OCO5)ncnc3c2)CC1 [Saracatinib (AZD0530)] | 87.9
21 | O=C(NCC(O)CO)c1c(I)c(C(=O)NCC(O)CO)c(I)c(N(CCO)C(=O)CO)c1I (configuration not stated) [Ioversol] | 108
22 | CO/N=C(\C(=O)N[C@@H]1C(=O)N2C(C(=O)O)=C(COC(N)=O)CS[C@H]12)c1ccco1 [Cefuroxime sodium salt] | 111
23 | Nc1ccc(S(=O)(=O)Nc2ccnn2-c2ccccc2)cc1 [Sulfaphenazole] | 102
24 | COc1cc(/C=C(\C#N)C(N)=O)cc(CSc2nc3ccccc3s2)c1O | 101
25 | CCOCC(O)COc1ccc(NC(=O)CC[S+](C)C)cc1 (configuration not stated) [Suplatast tosylate] | 102
26 | CC1Cc2ccccc2N1NC(=O)c1ccc(Cl)c(S(N)(=O)=O)c1 (configuration not stated) [Indapamide] | 98.2

Row | Compound | nuclei count
27 | CO/N=C(\C(=O)N[C@@H]1C(=O)N2C(C(=O)O)=C(Cn3ccc(=N)n3CCO)CS[C@H]12)c1csc(N)n1 [Cefoselis sulfate] | 99.1
28 | C=CC(=O)Nc1ccc2ncnc(Nc3cccc(Br)c3)c2c1 | 79.2 ± 4.8
29 | CC(C)=CCC/C(C)=C/CC/C(C)=C/CSCC(=O)O [Farnesylthioacetic acid] | 97.9
30 | CC#CCOC(=O)C1=CCCN(C)C1 [Arecaidine but-2-ynyl ester tosylate] | 101
31 | C[C@H](CCC(=O)O)[C@H]1CC[C@H]2[C@@H]3CC[C@@H]4C[C@H](O)CC[C@]4(C)[C@H]3C[C@H](O)[C@]12C [Sodium Deoxycholic acid] | 112
32 | C[C@H](CCC(=O)O)[C@H]1CC[C@H]2[C@@H]3CC[C@@H]4C[C@H](O)CC[C@]4(C)[C@H]3C[C@H](O)[C@]12C [Deoxycholic acid] | 99.6
33 | COc1cc(C#N)ccc1S(=O)(=O)Nc1ccc2c(c1)cc(C)c(=O)n2C | 103
34 | O=C(O)C1=CCCNC1 [Guvacine hydrochloride] | 101
35 | Cc1cc(CC(=O)O)n(C)c1C(=O)c1ccc(Cl)cc1 [Zomepirac sodium salt] | 99
36 | CCCCCCCCCCCCCCCC(=O)O[C@@H]1[C@@H](O)[C@@H](O)[C@@H]([C@H](NC(=O)[C@@H]2C[C@@H](CCC)CN2C)[C@H](C)Cl)O[C@@H]1SC [Clindamycin palmitate HCl] | 90.7
37 | CCN(CC)CCCC(C)Nc1ccnc2cc(Cl)ccc12 (configuration not stated) [Chloroquine diphosphate] | 103
38 | CCN(CC)CCCC(C)Nc1ccnc2cc(Cl)ccc12 (configuration not stated) [Chloroquine] | 96.6
39 | CS(=O)(=O)c1ccc([C@@H](O)[C@@H](CF)NC(=O)C(Cl)Cl)cc1 [Florfenicol] | 90.3
40 | O=C(O)Cn1c(C(=O)Nc2nc(-c3ccccc3Cl)cs2)cc2ccccc21 | 102
41 | CCNC(=O)[C@H]1O[C@@H](n2cnc3c(N)nc(NCCc4ccc(CCC(=O)O)cc4)nc32)[C@H](O)[C@@H]1O | 99.1
42 | O=C(COc1cccc2c(=O)[nH]ccc12)c1ccccc1 | 107
43 | Nc1ccc(S(=O)(=O)NC(=O)c2ccccc2)cc1 [Sulfabenzamide] | 104
44 | CC(C)c1nc(N(C)S(C)(=O)=O)nc(-c2ccc(F)cc2)c1/C=C/[C@@H](O)C[C@@H](O)CC(=O)O [Rosuvastatin calcium (Crestor)] | 107
45 | C=C(CC)C(=O)c1ccc(OCC(=O)O)c(Cl)c1Cl [Ethacrynic acid] | 109
46 | CCCC[P+](CCCC)(CCCC)Cc1ccc(NC(=O)C(Cc2ccc3ccccc3c2)NC(=NC2CCCCC2)NC2CCCCC2)cc1 (configuration not stated) | 94.1
47 | CCCCCCCCCCCCCCCC(=O)O[C@H](CC(=O)O)C[N+](C)(C)C (racemic) [(±)-Palmitoylcarnitine chloride] | 94.5
48 | C1N2CN3CN1CN(C2)C3 [Methenamine] | 107
49 | O=C(O)C1=C[C@@H](O)[C@@H](O)[C@H](O)C1 [Shikimic acid (Shikimate)] | 100
50 | C[Se]CC[C@H](N)C(=O)O [Selenomethionine] | 94.8
51 | O=C1NCCN1c1ncc([N+](=O)[O-])s1 [Niridazole] | 90.4
52 | CCCCCN(C)CCC(O)(P(=O)(O)O)P(=O)(O)O [Ibandronate sodium] | 105.7 ± 1

Row | Compound | nuclei count
53 | CN=c1nc(-c2ccccc2)n(-c2ccccc2)s1 | 108
54 | C[C@@H](O)[C@H]1C(=O)N2C(C(=O)O)=C(SCCNC=N)C[C@H]12 [Imipenem] | 100
55 | CC[C@]12C=CCN3CC[C@@]4(c5cc([C@@]6(C(=O)OC)C[C@@H]7C[C@@H](C(C)(F)F)CN(Cc8c6[nH]c6ccccc86)C7)c(OC)cc5N(C)[C@H]4[C@@](O)(C(=O)OC)[C@@H]1OC(C)=O)[C@@H]32 [Vinflunine Tartrate] | 14.1
56 | c1ccc2c(c1)CCCC2C1=NCCN1 (configuration not stated) [Tetrahydrozoline hydrochloride] | 90.5
57 | CC(C)(C)C(=O)OCOC(=O)[C@@H]1N2C(=O)[C@@H](/N=C/N3CCCCCC3)[C@H]2SC1(C)C [Pivmecillinam hydrochloride] | 104
58 | O=C(c1ccc(F)cc1)C1CCN(CCCCc2ccccc2)CC1 [4-(4-Fluorobenzoyl)-1-(4-phenylbutyl)-piperidine oxalate] | 94.8
59 | OCC(O)CN1CCN(c2ccccc2)CC1 (racemic) [Dropropizine (R,S)] | 108
60 | CC(C)OC(=O)C(C(=O)OC(C)C)=C1SC=CS1 [Malotilate] | 91.2
61 | CNc1ncnc2c1ncn2[C@@H]1O[C@H](CO)[C@@H](O)[C@H]1O [N6-methyladenosine] | 97.6
62 | C[C@H](NCc1ccc(OCc2cccc(F)c2)cc1)C(N)=O | 97.8
63 | CCn1cc(C(=O)O)c(=O)c2cc(F)c(N3CCNCC3)nc21 [Enoxacin] | 110
64 | CC(=O)OCC(=O)NCCCOc1cccc(CN2CCCCC2)c1 [Roxatidine Acetate HCl] | 108
65 | OC[C@@H](O)[C@@H](O)[C@H](O)[C@H](O)CO [D-Mannitol (Osmitrol)] | 102
66 | C=CCc1ccc(O)c(OC)c1 [Eugenol] | 108
67 | CN1Cc2c(C(=O)OC(C)(C)C)ncn2-c2ccsc2C1=O | 109
68 | N#C/C(=C\c1ccc(O)c(O)c1)C(=O)Nc1ccccc1 | 83.4
69 | CNc1cc2c(Nc3cccc(Br)c3)ncnc2cn1 | 46.6
70 | OC[C@H]1OC(O)[C@H](O)[C@@H](O)[C@@H]1O (stereo partly drawn) [Dextrose (D-glucose)] | 103
71 | O=C1NC(=O)C(c2ccccc2[N+](=O)[O-])=C1Nc1ccc(O)c(Cl)c1 | 96.9 ± 2.1
72 | O=C1NC(=O)/C(=C/c2ccc3nccc(-c4ccncc4)c3c2)S1 | 98.2
73 | CCCc1ncc(C[n+]2ccccc2C)c(N)n1 [Amprolium hydrochloride] | 104
74 | NCC1CCC(C(=O)N[C@@H](Cc2ccccc2)C(=O)Nc2ccc(CC(=O)O)cc2)CC1 (some centres not stated) | 101
75 | CC(C(=O)O)c1cccc(Oc2ccccc2)c1 (configuration not stated) [Fenoprofen calcium salt dihydrate] | 95.1
76 | CC(C(=O)O)c1cccc(Oc2ccccc2)c1 (configuration not stated) [Fenoprofen calcium hydrate] | 98.9
77 | Oc1ccc(C2CNCCc3c2cc(O)c(O)c3Cl)cc1 (configuration not stated) [Fenoldopam hydrochloride] | 104
